The supplement of paper PMC3334620
In all, about 33,000 sequences were measured (“E-score (-0.5 to 0.5)”: median about -0.017, highest 2% from about 0.3 on). Some of the results follow.

biological target: T1, Sut1 (UniProt P53032); assay: PBM E-score (8-mer binding enrichment) (E-score (-0.5 to 0.5)); higher = stronger / more preferred TF binding; most listed sequences are background and not binding sites; settings: protein concentration: 200 nM; construct: GST-full length
T1 sequence: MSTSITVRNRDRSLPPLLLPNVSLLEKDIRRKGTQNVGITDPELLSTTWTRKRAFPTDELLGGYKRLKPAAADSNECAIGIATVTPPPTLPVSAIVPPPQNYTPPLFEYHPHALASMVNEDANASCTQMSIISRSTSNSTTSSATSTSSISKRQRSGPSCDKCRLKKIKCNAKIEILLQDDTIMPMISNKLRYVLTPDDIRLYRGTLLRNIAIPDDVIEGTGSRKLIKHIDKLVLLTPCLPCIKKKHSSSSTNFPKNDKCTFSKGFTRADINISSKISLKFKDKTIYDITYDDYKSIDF
Method in brief: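 PURExpress in vitro transcription/translation supplied GST-tagged yeast transcription factors, either full-length or DNA-binding domain. Applied at about 100-200 nM to universal all-10-mer Agilent arrays double-stranded by primer extension, the bound protein was detected with fluorescent anti-GST. E-scores, modified Wilcoxon-Mann-Whitney statistics, were given by the Universal PBM Analysis Suite to ungapped eight-base words pooled with their reverse complements after masliner normalisation.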

Sequence	PBM E-score
ATAGAATG	0.0365
CCCTAAAC	-0.118
TGCTCGAA	-0.0479
ACCGTAAC	-0.0238
AGACTAAC	0.0744
CGGGTCTC	-0.0622
CGGACCAA	0.264
GGGAGTTA	-0.0288
AACCAGAT	0.0291
ATTTCTGA	0.0444
TACCACCA	0.0245
GCATGGGC	-0.174
CTAAACGC	0.0262
AAGCCCCC	-0.321
GGGGCAAC	-0.217
AGTTTTCG	0.181
ATACTTAG	-0.0112
GGCCTGCA	-0.402
CCCTCATA	-0.256
ACCTATAC	0.115
ATTGTAAA	0.255
ATTCAACG	0.206
ATGGACTC	-0.0566
TATAGATA	0.228
CTGGGTCA	-0.152

Sequence	PBM E-score
GGCGGCAC	-0.0808
CCCTGTTA	0.0626
GAGCTGTA	-0.0784
AGTGGTGG	-0.162
AAATAAAT	0.329
CATGTGCG	-0.163
AGGGGCTA	-0.289
CGTCACTC	0.12
TCACGCAA	0.205
CGTGCCAA	-0.0324
AAAGTTGA	0.0344
CCTCTACA	-0.112
ATGTTTGG	0.142
GATCTTGA	0.0152
AAGCGCCG	0.152
CCAACAAC	0.0768
GGACGAAA	0.0248
TAAAAGCA	0.192
AGGCCACC	-0.119
TCTTGGAA	0.173
AGAATAAT	0.0203
AGGCTCAC	-0.307
CACTTAAA	0.189
AGCATTTC	0.117
GACCCCCC	-0.173

Sequence	PBM E-score
ATACTTCG	0.0847
CTTCGGAA	0.335
GTGGGTTA	-0.16
CATAATAC	0.159
TCAAAGAA	0.0215
ATTCTAGC	0.00544
CAGATATG	-0.0355
ATACTAAT	0.0774
GAAGGGTA	-0.132
GCATTGGA	0.0194
GCCATGCC	-0.125
GCTCCAGA	-0.199
AATCCCAC	-0.00843
CGTCGCCC	-0.255
CCCCAGCC	-0.186
CATTACGC	0.152
ATGTGGGC	-0.0832
CACAGCTA	-0.207
CGATAGGA	0.0784
ACGGACGG	-0.0102
AAGCGATG	-0.203
TGGGCCAA	-0.0219
GAAAACAA	0.184
GGAGATTA	0.257
ATAAGCAT	0.0632

Sequence	PBM E-score
CAAGATAC	0.0202
CAGGTGGG	-0.239
ATGGAAGA	0.0525
ATGTATAA	0.175
TGAACGCA	-0.0618
CGGTGATC	0.0252
AATCTTCG	0.12
CTATCTCC	0.114
AGCCGACA	-0.142
AGCGACAC	-0.129
AACTGTCG	0.00476
ACGGCTGA	-0.0753
AATCCTCC	0.0382
CCTTCTTC	-0.19
AGACTACG	-0.114
AAATATAG	0.199
GCATACAC	0.024
GAGGCTCA	-0.297
CATTTTGA	0.0309
CGCTTAAA	0.0343
CGACCCCG	-0.0289
TAAGGATA	0.137
ATTATTCA	0.289
CTCCCAGC	-0.221
CCTTTATC	-0.00706

Sequence	PBM E-score
TAAGTGTA	0.0997
GCTGGGAA	-0.0912
ATCTCTCA	-0.0609
CGTTCGCA	-0.103
CCGGGTAG	0.00582
CGTAACGA	0.00374
ACTGCGGC	-0.0979
TTAGCCAA	-0.0233
TAACAGAA	0.213
CGCACCCC	-0.14
TATCTTCA	0.118
CGGAATAG	0.149
CGGTTGCC	-0.124
GAGAGAAC	0.166
CGCAGGGC	0.083
ACTGGAAT	0.0551
AATGTTAG	0.0845
GCTCCTGA	-0.0742
CACAAGCG	-0.13
GGTGCTAA	-0.0657
AATCAATG	0.182
AATCTACG	0.00117
GTGTGAGA	-0.0322
ACGGCCAC	-0.0203
ATGGTTGA	-0.0215

Sequence	PBM E-score
CACAACTA	0.181
CTCACAAA	0.121
AATTCAGG	0.0428
CGCGTGGC	-0.0836
CAGTGTAC	-0.25
TAACAATA	0.193
AATTTAGC	0.189
ACGGCGAT	-0.012
AAAGTTCT	0.149
CACTACAA	0.154
ACGCGACG	-0.211
CTCCCCGA	-0.0284
AAACTTCA	0.223
ACATAAGT	0.0486
GATTAAGC	0.171
CAAATCTG	0.023
ATCGAGAT	-0.0686
GCACTCCC	-0.156
TCGGTCAA	0.0249
CGTCGCTA	-0.0842
CGCCTTGA	-0.174
AAAGACCG	0.132
CCGACCTA	0.00057
GAAACTGA	-0.0944
ATAATTCA	0.249

Sequence	PBM E-score
GAAGGCGC	-0.162
GAGCCTAA	0.0539
TGCCGTAA	-0.168
CAAGAACC	0.105
CGTTAACG	-0.112
CGCAACTA	0.0777
CCGTTCCA	0.00457
TCTGACAA	0.0718
AGCTATTA	-0.0016
CAATCCAG	-0.0301
CTTTACGC	-0.0164
CACTATGG	-0.0771
AGCGTCAT	-0.0756
CAAAGCGG	0.153
ACAGTTAG	0.148
AGAGTGTG	0.024
GACTCGTA	-0.116
ACACATAG	-0.0486
ACTTGCAT	-0.0318
GCTACGTA	-0.097
ACAGCGGG	-0.124
ATTGCAGC	-0.076
ACCTAAAC	0.111
CCCATACA	-0.23
ATGCCTGG	-0.19

Sequence	PBM E-score
ATCCTAGC	-0.046
AGAAACCA	0.131
GGGGAAAA	0.091
CGGCTGCA	-0.153
GTTCTACA	-0.147
CATAGGAC	-0.121
CAGAACGA	-0.0073
AGATCGCC	-0.0712
CTTTATTC	0.0327
CCCTGGCC	-0.196
ATCGGTTA	0.252
GCCACCGC	-0.0803
GAAGAAAA	0.239
CATAGTCA	-0.104
CAAGATTG	0.0471
CCTGCAGG	-0.331
ACCCGTGC	-0.199
CACCCCTC	-0.352
ATAACTAC	0.272
AGAAGAGG	-0.226
CGACCTAA	0.0879
CGAGTCTC	-0.184
GTTTATAA	0.183
CCTTGCTA	-0.0778
GAGCCCCC	-0.31

Sequence	PBM E-score
CAAGCGGA	0.0999
ATACTTCA	0.134
ATCCCCGA	0.203
CAATAAGA	0.0491
ACGGCTCT	0.0391
ATCTTAAA	0.177
CCTCATTA	0.0882
ATTTGCTG	0.133
TCGCCAAA	0.0493
AGTTCTCG	0.122
AATATCAC	0.227
CAGCGACC	-0.221
AAGTCAAC	-0.0429
CTGCGATC	-0.166
AGCTGAGC	-0.245
AAAGGCAT	0.113
AATCCTTG	-0.0659
GGAGGCGA	-0.302
ATTCTCAG	0.00054
AACGCCCC	-0.0362
ATCAGAAA	0.0611
ACTTTCAT	0.137
AATAGGGC	-0.0135
CAGGTGGA	-0.221
TGTAACAA	0.0296

Sequence	PBM E-score
CGTCTGAC	-0.0115
CTTAACTA	0.0992
ATCTTAAG	0.117
CTAGTGAG	-0.0997
GAAAAAGC	0.0786
CAACTGAC	-0.119
ACGAAAAG	0.14
GCTCCACA	-0.174
AACACGTT	-0.0975
GCAATAGA	-0.051
ATGCTATA	-0.0454
AAGAAATA	0.177
CTCCTTTA	-0.0522
ATCACAAC	0.125
GTACATAC	0.124
AGCGCCGA	0.0701
AGAGCCTA	-0.0272
TCTGCAAA	-0.0765
ATTGCATC	0.0862
AGAAAGTG	-0.0157
ATGAGTAA	-0.0418
CTTTTCCC	-0.0342
AAAGTAAA	0.22
AAGAAGAT	0.127
CGGTGAAA	0.206

Sequence	PBM E-score
ATACAATG	0.243
GGGGCACC	-0.175
AACATGGC	-0.159
AATGGGAA	0.0116
CCGCAGAG	-0.241
AACACGAG	-0.016
AAGCATGG	-0.176
ACACAAAT	0.144
ACTGATAT	0.137
AGCTAACC	-0.141
ATTGCATA	0.0701
ATGATGCA	0.142
CGATAACA	0.0126
CGCTACCC	-0.135
CAACACTG	-0.175
CGGCGATA	0.192
AGTACAAA	0.152
CGTTCAGA	-0.233
AAACTGCC	0.022
ACATGTAG	0.167
GCCTGGAA	-0.066
GCTACACC	-0.166
ACACGCGG	-0.138
ATATAGCA	0.0316
CAAACCAA	0.145

Sequence	PBM E-score
AAGTATCA	0.0843
ATCGTTGG	0.0121
GCGATAGA	-0.104
ACCTGAGG	-0.313
AAGATTAC	0.191
GATCGGAC	0.367
GTTACCCA	-0.19
AGGTGGTC	-0.094
ATATGCAC	0.133
GGATTGAC	-0.0159
CCGCGAAA	0.076
CAAAGCTA	0.031
ACGCCAAA	0.049
ACTTAATA	0.259
AGCCGTGC	-0.275
CACTATGC	0.00999
AGAATCGC	-0.0063
CCACACGG	-0.0635
ATGCGGAA	0.0745
GTCGTACA	0.152
GAGATTTA	0.12
CGGCACAG	0.0997
AACACTAC	0.0196
TTCACCAA	0.0708
GCATTTCC	0.0947

Sequence	PBM E-score
GTCCAGGA	-0.149
AATCACGG	0.223
GATCTTCC	0.00163
AGTATCAC	0.0249
GACGATAA	-0.0234
AGCGGCAT	-0.0727
CTTAATGA	0.0149
AAATTTAT	0.192
CCGACTAG	-0.012
ATCGATGC	-0.0895
CCCGTCAC	-0.128
ATGAGGAG	0.0843
AGAAGCCA	-0.0285
GGCAATTA	0.0911
GAGTGACC	-0.104
ACAGTAAA	0.165
AAGGGCAG	-0.169
CGACTTAC	-0.0195
GGATTGGA	-0.0756
CATATAGC	0.0133
ATGGTTAC	0.0832
CGCCACCA	-0.255
GCGTAACC	-0.019
ACGAGTGC	-0.0845
ACTAAACC	0.0318

Sequence	PBM E-score
CCCACCTA	-0.166
TATAACGA	0.187
ATCGGCTA	-0.0625
CAGAATCC	-0.0104
CCGTTGAA	-0.00597
TCTGGTAA	-0.0251
CCACACCA	-0.0795
GAGAGGCA	-0.0692
AGGCACCG	-0.191
AGAACTCT	0.07
GTACCGAC	-0.181
CGTGGCAA	-0.166
TCATTTAA	0.0998
CGATAGTC	0.131
GTCGCCAC	-0.202
AAGTAAAC	0.00246
ATGGATAC	0.0503
AAACAAAG	0.322
AATCGCAA	0.0677
